Test results as given in the supplement of paper PMC4967469.

Compound: CCOc1cc2ncc(C#N)c(Nc3ccc(F)c(Cl)c3)c2cc1NC(=O)/C=C/CN(C)C [EKB-569]
Experiment: Viability of human cancer cell lines after 72 h of drug (GDSC screen)
Settings: top dose inferred
Experimental: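 Human cancer cell lines in 384-well plates, medium with 10% serum, drug for 72 h over a 256-fold dose range (nine 2-fold or five 4-fold steps up to the top dose). Adherent lines were fixed and stained with the nucleic acid dye Syto60, suspension lines read with resazurin; signal relative to control wells, capped at 0 and 100%. One two-parameter sigmoid per drug and line, fitted in a mixed model over all curves with the slope shared within a line.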

Cell Line | AUC | pIC50
HPAF-II (pancreas, adherent, top dose 2.5 µM) | 0.76 | 5.94
HSC-2 (head and neck, adherent, top dose 2.5 µM) | 0.95 | < 5.60
HSC-3 (head and neck, adherent, top dose 2.5 µM) | 0.944 | < 5.60
HSC-4 (head and neck, adherent, top dose 2.5 µM) | 0.878 | < 5.60
HSC-39 (stomach, suspension, top dose 2.5 µM) | 0.922 | < 5.60
HT55 (large intestine, adherent, top dose 2.5 µM) | 0.99 | < 5.60
HT (B-cell lymphoma, suspension, top dose 2.5 µM) | 0.957 | < 5.60
HT-3 (cervix, adherent, top dose 2.5 µM) | 0.929 | < 5.60
HT-29 (large intestine, adherent, top dose 2.5 µM) | 0.903 | < 5.60
HT-115 (large intestine, adherent, top dose 2.5 µM) | 0.971 | < 5.60
HT-144 (melanoma, adherent, top dose 2.5 µM) | 0.967 | < 5.60
HT-1080 (fibrosarcoma, adherent, top dose 2.5 µM) | 0.988 | < 5.60
HT-1197 (bladder, adherent, top dose 2.5 µM) | 0.959 | < 5.60
HT-1376 (bladder, adherent, top dose 2.5 µM) | 0.981 | < 5.60
HTC-C3 (thyroid, adherent, top dose 2.5 µM) | 0.739 | 6.08
HUTU-80 (digestive system, adherent, top dose 2.5 µM) | 0.747 | 6.16
HeLa (cervix, adherent, top dose 2.5 µM) | 0.976 | < 5.60
Hep 3B2_1-7 (liver, adherent, top dose 2.5 µM) | 0.983 | < 5.60
Hey (ovary, adherent, top dose 2.5 µM) | 0.902 | < 5.60
Hs633T (fibrosarcoma, adherent, top dose 2.5 µM) | 0.907 | 5.63
Hs683 (glioma, adherent, top dose 2.5 µM) | 0.969 | < 5.60

Cell Line | AUC | pIC50
Hs746T (stomach, adherent, top dose 2.5 µM) | 0.773 | 5.88
Hs766T (pancreas, adherent, top dose 2.5 µM) | 0.981 | < 5.60
Hs939-T (melanoma, adherent, top dose 2.5 µM) | 0.986 | < 5.60
Hs940-T (melanoma, adherent, top dose 2.5 µM) | 0.892 | < 5.60
Hs-445 (Hodgkin lymphoma, suspension, top dose 2.5 µM) | 0.71 | 6.24
Hs-578-T (breast, adherent, top dose 2.5 µM) | 0.987 | < 5.60
HuCCT1 (biliary tract, adherent, top dose 2.5 µM) | 0.863 | < 5.60
HuH-7 (liver, adherent, top dose 2.5 µM) | 0.987 | < 5.60
HuO9 (osteosarcoma, adherent, top dose 2.5 µM) | 0.93 | < 5.60
HuO-3N1 (osteosarcoma, adherent, top dose 2.5 µM) | 0.982 | < 5.60
HuP-T3 (pancreas, adherent, top dose 2.5 µM) | 0.836 | 5.65
HuP-T4 (pancreas, adherent, top dose 2.5 µM) | 0.757 | 6.04
IA-LM (large cell lung carcinoma, adherent, top dose 2.5 µM) | 0.956 | < 5.60
IGR-1 (melanoma, adherent, top dose 2.5 µM) | 0.956 | < 5.60
IGR-37 (melanoma, adherent, top dose 2.5 µM) | 0.989 | < 5.60
IHH-4 (thyroid, semi-adherent, top dose 2.5 µM) | 0.97 | < 5.60
IM-95 (stomach, adherent, top dose 2.5 µM) | 0.724 | 6.15
IMR-5 (neuroblastoma, adherent, top dose 2.5 µM) | 0.875 | 5.74
IPC-298 (melanoma, adherent, top dose 2.5 µM) | 0.909 | < 5.60
IST-MEL1 (melanoma, adherent, top dose 2.5 µM) | 0.88 | < 5.60
IST-MES1 (mesothelioma, adherent, top dose 2.5 µM) | 0.967 | < 5.60

Cell Line | AUC | pIC50
IST-SL1 (small cell lung carcinoma, semi-adherent, top dose 2.5 µM) | 0.873 | < 5.60
IST-SL2 (small cell lung carcinoma, suspension, top dose 2.5 µM) | 0.787 | 5.97
J82 (bladder, adherent, top dose 2.5 µM) | 0.955 | < 5.60
JAR (urogenital system, adherent, top dose 2.5 µM) | 0.774 | 6.02
JEG-3 (urogenital system, adherent, top dose 2.5 µM) | 0.991 | < 5.60
JHH-1 (liver, adherent, top dose 2.5 µM) | 0.382 | 7.14
JHH-2 (liver, adherent, top dose 2.5 µM) | 0.913 | < 5.60
JHH-4 (liver, adherent, top dose 2.5 µM) | 0.987 | < 5.60
JHH-6 (liver, adherent, top dose 2.5 µM) | 0.983 | < 5.60
JHH-7 (liver, adherent, top dose 2.5 µM) | 0.972 | < 5.60
JHOS-2 (ovary, adherent, top dose 2.5 µM) | 0.928 | < 5.60
JHOS-3 (ovary, adherent, top dose 2.5 µM) | 0.921 | < 5.60
JHU-011 (head and neck, adherent, top dose 2.5 µM) | 0.77 | 6.03
JHU-022 (head and neck, adherent, top dose 2.5 µM) | 0.921 | < 5.60
JIMT-1 (breast, adherent, top dose 2.5 µM) | 0.894 | < 5.60
JJN-3 (haematopoietic neoplasm, suspension, top dose 2.5 µM) | 0.951 | < 5.60
JM1 (B-cell lymphoma, suspension, top dose 2.5 µM) | 0.902 | 5.61
JSC-1 (B-cell lymphoma, suspension, top dose 2.5 µM) | 0.771 | 6.02
JURL-MK1 (chronic myeloid leukaemia, suspension, top dose 2.5 µM) | 0.803 | 5.91
JVM-2 (lymphoid neoplasm, suspension, top dose 2.5 µM) | 0.944 | < 5.60

pIC50: −log10 of the molar value. Lines with a small IC50 respond at low doses; a fit beyond the top or the lowest dose is shown as a bound at that dose. AUC sums up the same curve from the lowest dose to the 256-fold higher top dose: 1 means no effect, lower means more sensitive. A top dose marked as inferred was calculated from the reported fits.
